Reference: patent US5972894A, “Peptides having potassium channel opener activity” (Cytran, Inc., priority 1997, dated 1999)
At least one peptide structure holds a part that was inferred or is arguable (an end, a ring closure or a residue). Residues, ends and D or L forms follow the SMILES beside them.

Tested on: ischemic myocardium
Test: Inotropic function and arrhythmias of ischemic isolated rat heart during reperfusion
Conditions: for Number of Ventricular Extrasystoles / Overall Duration of Ventricular Fibrillation / Overall Duration of Ventricular Tachycardia: 30-minute reperfusion
Source text: Rat hearts were surgically isolated from white random-bred rats weighing approximately 250 g. The isolated hearts were perfused with a standard oxygenated (95% O2 and 5% CO2) Krebs-Henseleit solution in a retrograde manner (i.e., according to Langendorff and using a constant perfusate pressure of 80 cm of water). The hearts maintained a steady spontaneous contraction rate. A latex balloon catheter connected to a pressure transducer (EMT-746, Siemens-Elema, Sweden) was inserted into the left ventricle of each heart to measure the inotropic function of the heart (as described in Example 3, above). The left ventricle pressure variation curve was recorded using a polygraph.
Stage I ("adaptation regimen") consisted of a 30-minute adaptation of the respective rat hearts to the perfusion regimen. The baseline parameters for the inotropic function of each heart were recorded to establish the preischemic values for the following measured parameters: (i) the systolic pressure in the left ventricle (Psyst. mm Hg); (ii) the diastolic pressure in the left ventricle (Pdiast. mm Hg); (iii) the evolving pressure (Pev. =Psyst. -Pdist. mm Hg); (iv) the maximal rate of increase of left ventricle pressure (+dp/dtmax mm Hg/sec); and (v) the maximal rate of decrease of left ventricle pressure (-dp/dtmax mm Hg/sec). In addition, the heart rate (HR) of each heart was determined from the recordings made of the variations in the left ventricle pressure over time. In Stage II ("ischemic simulation"), ischemia was induced in each heart by shutting off the supply of the perfusion solution to the heart. Approximately 30 minutes later, Stage III ("reperfusion regimen") was initiated by restarting the reperfusion and including in the perfusate solution a test or control substance at one of the following respective concentrations: a perfusate solution of a test substance comprised 0.06, 0.6, or 6.0 mg/l GE, or 0.06, 0.6, or 6.0 mg/l VT, respectively; a perfusate solution of the positive control substance comprised 14 mg/l inosine. Inosine is a nucleoside preparation that produces a favorable inotropic effect on both normal and ischemic myocardium while inducing no rhythm disturbances or acceleration of ischemic contracture development. Woollard et al., Cardiovasc. Res. 15: 659-67 (1981). Inosine was obtained from Sigma Chemical Company, USA (Cat. Code I-4125; lot number 81H0227). The negative control substance comprised reperfusion using a standard oxygenated Krebs-Henseleit solution.
For each heart, the inotropic function of the myocardium was evaluated by measuring the parameters (i) through (v), discussed above, and the heart rate. These six parameters were recorded continuously throughout the study (i.e., beginning with Stage I and continuing through Stage III). The recordings were analyzed at the following times: (a) immediately before beginning Stage II (that is, after the 30-minute Stage I adaptation period, but before stopping perfusion); and (b) at 1, 5, 10, 20, and 30 minutes into the Stage III reperfusion.
The frequency and duration of rhythm disturbances in the 30-minute Stage III reperfusion period were determined by measuring the following parameters: (i) the number of ventricular extrasystoles; (ii) the overall duration of ventricular tachycardias (in seconds); and (iii) the overall duration of ventricular fibrillation (in seconds). Each dose of the test substance was tested on nine isolated hearts.

CC(C)[C@H](N)C(=O)N[C@H](C(=O)O)[C@@H](C)O [VT, L-Valine-L-Threonine] (H-Val-Thr-OH)
Number of Ventricular Extrasystoles (0.06 mg/l): 154.5 | Overall Duration of Ventricular Fibrillation (0.06 mg/l): 29.3 s | Overall Duration of Ventricular Tachycardia (0.06 mg/l): 7.7 s | Diastolic Pressure in Ischemic Left Ventricle (% of Preischemic Mean Value) (0.06 mg/l, 1 min reperfusion): 112.41% | Evolving Pressure in Ischemic Left Ventricle (% of Preischemic Mean Value) (0.06 mg/l, 1 min reperfusion): 90.10% | Heart Rate during Reperfusion (% of Preischemic Mean Value) (0.06 mg/l, 1 min reperfusion): 92.58% | Maximal Rate of Increase of Left Ventricle Pressure (% of Preischemic Mean Value) (0.06 mg/l, 1 min reperfusion): 93.83% | Maximal Rate of Left Ventricle Pressure Decrease (% of Preischemic Mean Value) (0.06 mg/l, 1 min reperfusion): 80.75% | Systolic Pressure in Ischemic Left Ventricle (% of Preischemic Values) (0.06 mg/l, 1 min reperfusion): 91.69% | Diastolic Pressure in Ischemic Left Ventricle (% of Preischemic Mean Value) (0.06 mg/l, 5 min reperfusion): 98.27% | Evolving Pressure in Ischemic Left Ventricle (% of Preischemic Mean Value) (0.06 mg/l, 5 min reperfusion): 93.41% | Heart Rate during Reperfusion (% of Preischemic Mean Value) (0.06 mg/l, 5 min reperfusion): 65.90% | Maximal Rate of Increase of Left Ventricle Pressure (% of Preischemic Mean Value) (0.06 mg/l, 5 min reperfusion): 89.14% | Maximal Rate of Left Ventricle Pressure Decrease (% of Preischemic Mean Value) (0.06 mg/l, 5 min reperfusion): 83.92% | Systolic Pressure in Ischemic Left Ventricle (% of Preischemic Values) (0.06 mg/l, 5 min reperfusion): 94.33% | Diastolic Pressure in Ischemic Left Ventricle (% of Preischemic Mean Value) (0.06 mg/l, 10 min reperfusion): 118.76% | Evolving Pressure in Ischemic Left Ventricle (% of Preischemic Mean Value) (0.06 mg/l, 10 min reperfusion): 74.75% | Heart Rate during Reperfusion (% of Preischemic Mean Value) (0.06 mg/l, 10 min reperfusion): 72.02% | Maximal Rate of Increase of Left Ventricle Pressure (% of Preischemic Mean Value) (0.06 mg/l, 10 min reperfusion): 76.40% | Maximal Rate of Left Ventricle Pressure Decrease (% of Preischemic Mean Value) (0.06 mg/l, 10 min reperfusion): 77.75% | Systolic Pressure in Ischemic Left Ventricle (% of Preischemic Values) (0.06 mg/l, 10 min reperfusion): 82.56% | Diastolic Pressure in Ischemic Left Ventricle (% of Preischemic Mean Value) (0.06 mg/l, 20 min reperfusion): 115.44% | Evolving Pressure in Ischemic Left Ventricle (% of Preischemic Mean Value) (0.06 mg/l, 20 min reperfusion): 78.47% | Heart Rate during Reperfusion (% of Preischemic Mean Value) (0.06 mg/l, 20 min reperfusion): 83.84% | Maximal Rate of Increase of Left Ventricle Pressure (% of Preischemic Mean Value) (0.06 mg/l, 20 min reperfusion): 80.01% | Maximal Rate of Left Ventricle Pressure Decrease (% of Preischemic Mean Value) (0.06 mg/l, 20 min reperfusion): 84.23% | Systolic Pressure in Ischemic Left Ventricle (% of Preischemic Values) (0.06 mg/l, 20 min reperfusion): 85.55% | Diastolic Pressure in Ischemic Left Ventricle (% of Preischemic Mean Value) (0.06 mg/l, 30 min reperfusion): 112.41% | Evolving Pressure in Ischemic Left Ventricle (% of Preischemic Mean Value) (0.06 mg/l, 30 min reperfusion): 71.47% | Heart Rate during Reperfusion (% of Preischemic Mean Value) (0.06 mg/l, 30 min reperfusion): 82.52% | Maximal Rate of Increase of Left Ventricle Pressure (% of Preischemic Mean Value) (0.06 mg/l, 30 min reperfusion): 70.75% | Maximal Rate of Left Ventricle Pressure Decrease (% of Preischemic Mean Value) (0.06 mg/l, 30 min reperfusion): 76.22% | Systolic Pressure in Ischemic Left Ventricle (% of Preischemic Values) (0.06 mg/l, 30 min reperfusion): 79.52% | Number of Ventricular Extrasystoles (0.6 mg/l): 182.4 | Overall Duration of Ventricular Fibrillation (0.6 mg/l): 35.1 s | Overall Duration of Ventricular Tachycardia (0.6 mg/l): 4.4 s | Diastolic Pressure in Ischemic Left Ventricle (% of Preischemic Mean Value) (0.6 mg/l, 1 min reperfusion): 101.59% | Evolving Pressure in Ischemic Left Ventricle (% of Preischemic Mean Value) (0.6 mg/l, 1 min reperfusion): 136.04% | Heart Rate during Reperfusion (% of Preischemic Mean Value) (0.6 mg/l, 1 min reperfusion): 71.30% | Maximal Rate of Increase of Left Ventricle Pressure (% of Preischemic Mean Value) (0.6 mg/l, 1 min reperfusion): 118.03% | Maximal Rate of Left Ventricle Pressure Decrease (% of Preischemic Mean Value) (0.6 mg/l, 1 min reperfusion): 100.31% | Systolic Pressure in Ischemic Left Ventricle (% of Preischemic Values) (0.6 mg/l, 1 min reperfusion): 128.62% | Diastolic Pressure in Ischemic Left Ventricle (% of Preischemic Mean Value) (0.6 mg/l, 5 min reperfusion): 97.55% | Heart Rate during Reperfusion (% of Preischemic Mean Value) (0.6 mg/l, 5 min reperfusion): 91.90% | Maximal Rate of Increase of Left Ventricle Pressure (% of Preischemic Mean Value) (0.6 mg/l, 5 min reperfusion): 89.62% | Maximal Rate of Left Ventricle Pressure Decrease (% of Preischemic Mean Value) (0.6 mg/l, 5 min reperfusion): 85.83% | Systolic Pressure in Ischemic Left Ventricle (% of Preischemic Values) (0.6 mg/l, 5 min reperfusion): 99.34% | Diastolic Pressure in Ischemic Left Ventricle (% of Preischemic Mean Value) (0.6 mg/l, 10 min reperfusion): 115.01% | Heart Rate during Reperfusion (% of Preischemic Mean Value) (0.6 mg/l, 10 min reperfusion): 113.52% | Maximal Rate of Increase of Left Ventricle Pressure (% of Preischemic Mean Value) (0.6 mg/l, 10 min reperfusion): 93.64% | Maximal Rate of Left Ventricle Pressure Decrease (% of Preischemic Mean Value) (0.6 mg/l, 10 min reperfusion): 96.20% | Diastolic Pressure in Ischemic Left Ventricle (% of Preischemic Mean Value) (0.6 mg/l, 20 min reperfusion): 115.01% | Evolving Pressure in Ischemic Left Ventricle (% of Preischemic Mean Value) (0.6 mg/l, 20 min reperfusion): 86.21% | Heart Rate during Reperfusion (% of Preischemic Mean Value) (0.6 mg/l, 20 min reperfusion): 108.41% | Maximal Rate of Increase of Left Ventricle Pressure (% of Preischemic Mean Value) (0.6 mg/l, 20 min reperfusion): 85.26% | Maximal Rate of Left Ventricle Pressure Decrease (% of Preischemic Mean Value) (0.6 mg/l, 20 min reperfusion): 88.18% | Systolic Pressure in Ischemic Left Ventricle (% of Preischemic Values) (0.6 mg/l, 20 min reperfusion): 89.31% | Diastolic Pressure in Ischemic Left Ventricle (% of Preischemic Mean Value) (0.6 mg/l, 30 min reperfusion): 115.01% | Evolving Pressure in Ischemic Left Ventricle (% of Preischemic Mean Value) (0.6 mg/l, 30 min reperfusion): 84.99% | Maximal Rate of Increase of Left Ventricle Pressure (% of Preischemic Mean Value) (0.6 mg/l, 30 min reperfusion): 85.51% | Maximal Rate of Left Ventricle Pressure Decrease (% of Preischemic Mean Value) (0.6 mg/l, 30 min reperfusion): 91.44% | Systolic Pressure in Ischemic Left Ventricle (% of Preischemic Values) (0.6 mg/l, 30 min reperfusion): 88.47% | evolving pressure, % of preischemic level (0.6 mg/l, after about 20 or about 30 minutes of reperfusion, respectively): ≥ 85% | -dp/dtmax, % of preischemic value (0.6 mg/l, by the 30th minute of reperfusion): greater than 90% | Number of Ventricular Extrasystoles (6.0 mg/l): 104.4 | Overall Duration of Ventricular Fibrillation (6.0 mg/l): 0 s | Overall Duration of Ventricular Tachycardia (6.0 mg/l): 0 s | Diastolic Pressure in Ischemic Left Ventricle (% of Preischemic Mean Value) (6.0 mg/l, 1 min reperfusion): 96.61% | Evolving Pressure in Ischemic Left Ventricle (% of Preischemic Mean Value) (6.0 mg/l, 1 min reperfusion): 99.46% | Heart Rate during Reperfusion (% of Preischemic Mean Value) (6.0 mg/l, 1 min reperfusion): 59.54% | Maximal Rate of Left Ventricle Pressure Decrease (% of Preischemic Mean Value) (6.0 mg/l, 1 min reperfusion): 75.83% | Systolic Pressure in Ischemic Left Ventricle (% of Preischemic Values) (6.0 mg/l, 1 min reperfusion): 102.32% | Diastolic Pressure in Ischemic Left Ventricle (% of Preischemic Mean Value) (6.0 mg/l, 5 min reperfusion): 173.67% | Evolving Pressure in Ischemic Left Ventricle (% of Preischemic Mean Value) (6.0 mg/l, 5 min reperfusion): 67.93% | Heart Rate during Reperfusion (% of Preischemic Mean Value) (6.0 mg/l, 5 min reperfusion): 71.39% | Maximal Rate of Increase of Left Ventricle Pressure (% of Preischemic Mean Value) (6.0 mg/l, 5 min reperfusion): 71.53% | Maximal Rate of Left Ventricle Pressure Decrease (% of Preischemic Mean Value) (6.0 mg/l, 5 min reperfusion): 65.42% | Systolic Pressure in Ischemic Left Ventricle (% of Preischemic Values) (6.0 mg/l, 5 min reperfusion): 74.59% | Diastolic Pressure in Ischemic Left Ventricle (% of Preischemic Mean Value) (6.0 mg/l, 10 min reperfusion): 213.35% | Evolving Pressure in Ischemic Left Ventricle (% of Preischemic Mean Value) (6.0 mg/l, 10 min reperfusion): 63.87% | Heart Rate during Reperfusion (% of Preischemic Mean Value) (6.0 mg/l, 10 min reperfusion): 75.19% | Maximal Rate of Increase of Left Ventricle Pressure (% of Preischemic Mean Value) (6.0 mg/l, 10 min reperfusion): 62.09% | Maximal Rate of Left Ventricle Pressure Decrease (% of Preischemic Mean Value) (6.0 mg/l, 10 min reperfusion): 70.90% | Systolic Pressure in Ischemic Left Ventricle (% of Preischemic Values) (6.0 mg/l, 10 min reperfusion): 77.58% | Diastolic Pressure in Ischemic Left Ventricle (% of Preischemic Mean Value) (6.0 mg/l, 20 min reperfusion): 169.62% | Evolving Pressure in Ischemic Left Ventricle (% of Preischemic Mean Value) (6.0 mg/l, 20 min reperfusion): 57.45% | Heart Rate during Reperfusion (% of Preischemic Mean Value) (6.0 mg/l, 20 min reperfusion): 103.33% | Maximal Rate of Increase of Left Ventricle Pressure (% of Preischemic Mean Value) (6.0 mg/l, 20 min reperfusion): 67.53% | Maximal Rate of Left Ventricle Pressure Decrease (% of Preischemic Mean Value) (6.0 mg/l, 20 min reperfusion): 69.93% | Systolic Pressure in Ischemic Left Ventricle (% of Preischemic Values) (6.0 mg/l, 20 min reperfusion): 69.85% | Diastolic Pressure in Ischemic Left Ventricle (% of Preischemic Mean Value) (6.0 mg/l, 30 min reperfusion): 151.44% | Evolving Pressure in Ischemic Left Ventricle (% of Preischemic Mean Value) (6.0 mg/l, 30 min reperfusion): 55.34% | Heart Rate during Reperfusion (% of Preischemic Mean Value) (6.0 mg/l, 30 min reperfusion): 82.04% | Maximal Rate of Increase of Left Ventricle Pressure (% of Preischemic Mean Value) (6.0 mg/l, 30 min reperfusion): 57.96% | Maximal Rate of Left Ventricle Pressure Decrease (% of Preischemic Mean Value) (6.0 mg/l, 30 min reperfusion): 60.00% | Systolic Pressure in Ischemic Left Ventricle (% of Preischemic Values) (6.0 mg/l, 30 min reperfusion): 65.28%
